Assay results: PubChem BioAssay AID624296 (National Center for Advancing Translational Sciences (NCATS), 2012)
Among all 350,000 compounds or so, about 9,900 (2.8%) were called active. Inconclusive results, whose numbers are uncertain, are shown with a selection of clear calls. Calls follow the shape of the dose curve; as a rule, active = well fitted activation curve with a large enough effect; inconclusive = small, poorly fitted or top-dose-only effect; inactive = no such curve, though single readings can be large or run the other way. Potencies of inconclusive entries are left out as doubtful fits.

Assay: A quantitative high throughput screen for small molecules that induce DNA re-replication in MCF 10a normal breast cells. Also: nearly all actives have a fitted effect of over 50% in size. As to activity, positive = re-replication: % of control where 0% means no effect.
Details: MCF 10A DNA re-replication, Hoechst nuclear intensity, 48 h; activity, positive = re-replication: at 46.1 µM (top of the series)
Potency is read from the fitted curve at half-maximal effect; tags tell the direction and shape of the fitted curve.

SMILES	Potency	activity, positive = re-replication
COc1cc(/C=C(\C#N)C(=O)NCCc2ccccc2)cc(OC)c1O	inconclusive [activator, partial curve, poor fit]	
Cc1nc(Cl)sc1C(=O)Nc1cccc(Cl)c1		inactive: 5.78%
O=C(COC(=O)c1ccccc1SCC(=O)N1CCCC1)Nc1ccccc1		inactive: -1.45%
CN(C)C(=O)COC(=O)c1ccccc1Sc1ccccc1C#N	inconclusive [activator, partial curve, poor fit]	
CC(=O)c1c(C)[nH]c(-c2ccccc2)nc1=S		inactive: 6.98%
COc1ccc(C(=O)N/N=C/c2ccc(OC(=O)c3cccc4ccccc34)c([N+](=O)[O-])c2)cc1	inconclusive [activator, single point]	
CCc1cc2c(=O)[nH]c(-c3ccccn3)nc2s1	active: 11.6 µM	
O=C(CCS(=O)(=O)c1ccc(F)cc1)Nc1nc(-c2ccncc2)cs1	active: 18.4 µM	
O=C1C(Cl)=C(NS(=O)(=O)c2ccc([N+](=O)[O-])cc2)C(=O)c2ccccc21		inactive: 2.72%
COC(=O)C1CCN(CC(=O)NC(=O)Nc2ccccc2F)CC1	inconclusive [activator, partial curve, poor fit]	
CCN1CCN(C(c2ccc(C(F)(F)F)cc2)c2ccc3cccnc3c2O)CC1 (configuration not stated)	inconclusive [activator, single point]	
CCOC(=O)Cn1c(=O)oc2cc(S(=O)(=O)N3CCCc4ccccc43)ccc21	inconclusive [activator, single point]	
CCOc1ccc(NC(=S)/C(=C(\[O-])c2ccc(C)c([N+](=O)[O-])c2)[n+]2ccccc2)cc1		inactive: 13.2%
CN(C)CCCNCCCNC(=O)/C=N/O	inconclusive [activator, single point]	
CCC1(c2ccccc2)NC(=O)N(Cc2cccc([N+](=O)[O-])c2)C1=O (configuration not stated)	inconclusive [activator, single point]	
Cc1ccc(OCCCCCCN2CCNCC2)c(Br)c1	inconclusive [activator, single point]	
O=C(N/N=C/c1ccc2c(c1)OCO2)c1cc(-c2ccco2)nc2ccccc12	inconclusive [activator, partial curve, poor fit]	
O=c1[nH]c2ccccc2cc1CN(Cc1cccnc1)S(=O)(=O)c1ccc(Cl)cc1		inactive: 27.8%
CCc1cc(C(=O)OC)c(NC(=O)C2CC(=O)NN2Cc2ccccc2)s1 (configuration not stated)		inactive: 0.485%
Nc1ccn(CC(=O)NCCc2ccccn2)c(=O)n1		inactive: -4.35%
CCc1cc2c(=O)c(-c3cnn(-c4ccccc4)c3)c(C)oc2c(CN2CCCCC2)c1O	inconclusive [activator, single point]	
COCCCNC(=O)c1ccc(N2CCOCC2)c(NS(=O)(=O)c2ccc(OC)cc2)c1	inconclusive [activator, single point]	
Cc1ccc(C2(CCNCc3ccc(N(C)C)cc3)CCOC(C(C)C)C2)cc1 (configuration not stated)	inconclusive [activator, single point]	

SMILES	Potency	activity, positive = re-replication
Cc1ccc(-c2nc(CSCC(=O)NC3CCN(Cc4ccccc4)CC3)c(C)o2)cc1	inconclusive [activator, partial curve, poor fit]	
Cc1cccc(C)c1OCC(=O)Nc1cccc(-c2nnc(-c3ccccc3)o2)c1	inconclusive [activator, single point]	
COCCNC(=S)NN(c1ccccc1)c1ccccc1	inconclusive [activator, single point]	
O=c1ccc(-c2ccc(S(=O)(=O)Nc3ccc(F)cc3)s2)n[nH]1	inconclusive [activator, partial curve, poor fit]	
Cc1ccc(C(=O)N/N=C\c2ccc(-c3ccc(Cl)c(Cl)c3)o2)cn1	inconclusive [activator, single point]	
CCN1CCN(C(=O)C2CCN(S(=O)(=O)c3cccc4cccnc34)CC2)CC1	inconclusive [activator, partial curve, poor fit]	
COc1ccc(/C=N/NC(=O)c2cccnc2)cc1O	inconclusive [activator, partial curve, poor fit]	
Cn1c(CNC(=O)CNC(=O)c2ccccc2F)cc(=O)n(C)c1=O		inactive: 0.247%
CC(C)[C@H](NC(=O)N1CC(=O)Nc2ccccc21)C(=O)N[C@@H](Cc1c[nH]c2ccccc12)C(=O)O	inconclusive [activator, full curve, poor fit]	
COc1ccccc1NC(=O)N(Cc1ccco1)Cc1cc2cccc(C)c2[nH]c1=O	inconclusive [activator, single point]	
Cn1nccc1C(=O)N/N=C/c1c(O)ccc2ccccc12	active: 16.4 µM	
COc1ccc(CCN(C)C(=O)CSc2nnc(-c3ccco3)o2)cc1OC	inconclusive [activator, single point]	
O=C(CN1CCOCC1)Nc1ccc(S(=O)(=O)NC2CCCCC2)cc1	inconclusive [activator, partial curve, poor fit]	
COc1cc(C2c3c(n[nH]c3C)C(=O)N2c2ccc(C)cc2)ccc1O (configuration not stated)	inconclusive [activator, single point]	
Cc1ccccc1NC(=O)COC(=O)c1ccc2c(c1)OCCO2	inconclusive [activator, partial curve, poor fit]	
CCn1c(-c2cc(-c3cc(OC)ccc3OC)nc3ccccc23)n[nH]c1=S		inactive: 4.07%
O=C(COC(=O)c1cnc(Cl)c(Cl)c1)Nc1cccc(S(=O)(=O)N2CCOCC2)c1	inconclusive [activator, single point]	
CC(C)=C[C@@H]1C[C@H](C)[C@H]2CC[C@H](C)c3c(O[C@@H]4O[C@@H](C)[C@@H](O)[C@@H](O)[C@@H]4O)c(O)c(C)c1c32	inconclusive [activator, single point]	
CC1CCC(NS(=O)(=O)c2ccc(Cl)s2)CC1 (configuration not stated)	inconclusive [activator, partial curve, poor fit]	
Cc1ccc(CONC(=O)c2ccc(C)cc2)cc1	inconclusive [activator, full curve, poor fit]	
O=C1c2oc3ccc(F)cc3c(=O)c2C(c2ccccc2)N1CC1CCCO1 (configuration not stated)		inactive: -6.01%
CCCn1nc2cc(C(=O)NCCc3cccs3)ccc2c1OCC	inconclusive [activator, full curve, poor fit]	
O=C(COc1ccccc1)Nc1ccc(-c2nnc(-c3ccco3)o2)cc1		inactive: -4.58%

SMILES	Potency	activity, positive = re-replication
CCC1=C(OC(=O)N(CC)CC)N2C(=O)OC(=NCc3ccccc3)[C@]2(C)[C@H]2C1=CC[C@H]1C(=O)N(c3ccccc3)C(=O)[C@H]12	inconclusive [activator, full curve]	
CC1=CC2=NC(=O)/C(=C\c3cccn3CCOc3cc(C)cc(C)c3)C(=N)N2O1	inconclusive [activator, partial curve, poor fit]	
CC(=O)O[C@@H]1[C@@]2(C)O[C@H]2CC[C@]23O[C@H]2[C@H](OC3=O)C2=C(C)C(=O)O[C@@]21O	inconclusive [activator, full curve]	
Cc1ccc(S(=O)(=O)N2CCN(C(=O)COC(=O)COc3cccc4c3OC(C)(C)C4)CC2)cc1		inactive: 1.21%
Cc1ccc(NC(=O)C(SCC(=O)O)c2ccccc2)cc1C (configuration not stated)		inactive: 1.07%
O=c1oc2cc(O)ccc2s1	inconclusive [activator, single point]	
Cc1ccc(-n2nc3c(N4CCC(C(=O)NCCc5cccs5)CC4)nnc(C)c3c2C)cc1	inconclusive [activator, single point]	
CCOc1ccc(NC(=O)CN(C)C(=O)c2cn3ccccc3n2)cc1OCC		inactive: -0.574%
C[C@H](CO)N1C[C@H](C)[C@@H](CN(C)C(=O)Nc2ccc3c(c2)OCO3)Oc2c(NC(=O)Cc3ccccc3)cccc2C1=O		inactive: -1.44%
CCCn1c(SCC(=O)N2c3ccccc3CCc3ccccc32)nc2c1c(=O)n(C)c(=O)n2C		inactive: 4.76%
O=C(CSc1nc2ccc(Cl)cc2[nH]1)N1CCN(C(=O)c2ccco2)CC1	inconclusive [activator, single point]	
C/C(=N\NC(=O)c1ccccn1)c1ccc(Cl)cc1		inactive: -17.4%
Cc1noc(C)c1CSc1nc2[nH]ncc2c(=O)n1-c1ccccc1	active: 1.26 µM	
Cc1c(C(c2ccc(O)cc2)c2c(C)n(C)n(-c3ccccc3)c2=O)c(=O)n(-c2ccccc2)n1C	inconclusive [activator, partial curve]	
Cc1ccc(N=Nc2ccc3ccccc3c2O)cc1		inactive: -1.17%
O=S(=O)(c1ccccc1)N1CCC(O)(CSc2ccc(F)cc2)CC1	inconclusive [activator, single point]	
Cc1ccc(C(=O)NCC(=O)NCc2ccc(Cl)cc2)s1		inactive: 10.8%
CCc1cccc(C)c1NC(=S)N(CCOC)C(C)c1ccco1 (configuration not stated)		inactive: -11.9%
CCCCC1=CC2=C(c3ccco3)C(=O)C(C)(OC(=O)c3ccc(OC)cc3)C(=O)C2=CN1C1CCCCC1 (configuration not stated)	inconclusive [activator, single point]	
Cc1cccc(C)c1NC(=O)CN(C)C(=O)c1cccc(S(=O)(=O)N2CCN(c3ccccc3)CC2)c1		inactive: -0.154%
CCOC(=O)c1c(NC(=O)CSc2nc3ccccc3s2)sc(C)c1C	inconclusive [activator, partial curve]	
